{
  "source": "PubChem BioAssay AID463173",
  "about": "(ICCB-Longwood Screening Facility, Harvard Medical School, 2010)",
  "note": "Among all 52,000 compounds or so, about 4,300 (8.3%) were called active. No stated cut-off is given here; in the data, active means survival mostly below about 52% (no sharp cut-off); inactive means mostly above about 56%. This is one part of the list.",
  "data": [
    {"test_system": "DeltatarO mutant", "assay": "S. aureus survival, RN4220 and DeltatarO strains – OD600, teichoic acid synthesis inhibitors, primary screen (AID 463173)", "details": "S. aureus RN4220 wild type/DeltatarO growth, OD600, 18 h, hits give low values, screened at 18.75 µg/mL (by protocol)", "values": [
      {"smiles": "CCOc1cc(/C=N/NC(=O)C(OC)c2ccccc2)ccc1O", "note": "(stereo unspecified)", "survival": "inactive: 91%"},
      {"smiles": "CCN(CC)c1cc(C)c2cc(NC(=O)c3ccccc3OC)ccc2n1", "survival": "active: 7%"},
      {"smiles": "CCCCn1c(SCC(=O)NCCCOC)nc2c(sc3ccccc32)c1=O", "survival": "inactive: 128%"},
      {"smiles": "CCn1c(=O)c2sccc2n2c(CCCC(=O)N3CCN(c4cc(Cl)ccc4C)CC3)nnc12", "survival": "inactive: 73%"},
      {"smiles": "Cc1ccc(NC(=O)/C=C/c2ccc(C)o2)c(C)c1", "survival": "inactive: 46%"},
      {"smiles": "Cc1cc(C)c2[nH]c(=O)c(CN(Cc3ccc(F)cc3)Cc3nnnn3CC3CCCO3)cc2c1", "note": "(stereo unspecified)", "survival": "inactive: 91%"},
      {"smiles": "Cc1cccc(N2CCN(C(=O)c3cc4c(=O)oc5ccccc5c4s3)CC2)c1C", "survival": "inactive: 66%"},
      {"smiles": "Cc1cc(C(F)F)n2nc(C(=O)Nc3c(C)cccc3C)nc2n1", "survival": "inactive: 80%"},
      {"smiles": "CCOC(=O)c1ccc(CNS(=O)(=O)c2c(C)ccc3nsnc23)o1", "survival": "inactive: 77%"},
      {"smiles": "O=C(CCN1N=C(c2ccccc2)CCC1=O)NCCc1ccc(Cl)cc1", "survival": "inactive: 122%"},
      {"smiles": "COCCN1C(=O)c2[nH]nc(-c3ccccc3O)c2C1c1ccc(Cl)c(Cl)c1", "note": "(stereo unspecified)", "survival": "active: 3%"},
      {"smiles": "CCCC1=Nc2cc(C(=O)NC(C)c3ccccc3)ccc2Sc2ccc(C)cc21", "note": "(stereo unspecified)", "survival": "inactive: 66%"},
      {"smiles": "Cc1nn(C(=O)c2c(F)cccc2F)c(C)c1S(=O)(=O)N1CCOCC1", "survival": "inactive: 84%"},
      {"smiles": "COc1ccc(CCNC(=O)c2ccc3c(c2)N(Cc2ccccc2F)C(=O)c2ccccc2S3(=O)=O)cc1OC", "survival": "inactive: 106%"},
      {"smiles": "Cc1ccc(CN(Cc2ccco2)C(=O)COc2cc(C)c(Cl)c(C)c2)cc1", "survival": "inactive: 58%"},
      {"smiles": "O=C(NCCc1ccccc1)c1cc(S(=O)(=O)N2CCCCC2)c[nH]1", "survival": "inactive: 69%"},
      {"smiles": "CCOC(=O)c1cnc2c(ccc3ccccc32)c1Nc1cccc(OC)c1", "survival": "active: 29%"},
      {"smiles": "CCN(CC)c1nc2n(c(=O)n1)CCO2", "survival": "inactive: 98%"},
      {"smiles": "COc1ccc(CCNc2ncnc3c2cnn3-c2ccc(C)cc2)cc1", "survival": "inactive: 81%"},
      {"smiles": "Fc1ccc(CN2CCc3nc(Nc4ccccc4)ncc3C2)cc1F", "survival": "inactive: 84%"},
      {"smiles": "CN1C(=O)c2ccccc2Sc2ccc(NC(=O)COc3ccc(F)cc3)cc21", "survival": "inactive: 87%"},
      {"smiles": "Cc1ccccc1C(=O)Nc1nnc(S(=O)(=O)N2c3ccccc3CC2C)s1", "note": "(stereo unspecified)", "survival": "active: 20%"},
      {"smiles": "COc1ccc(C2C(=O)N(C3CCCCCC3)CC(=O)N2Cc2ccc(C)cc2)cc1OC", "note": "(stereo unspecified)", "survival": "inactive: 73%"},
      {"smiles": "Cn1c(SCc2ccccc2)nnc1-c1ccccc1", "survival": "inactive: 93%"},
      {"smiles": "Cc1nn(-c2ccccc2)c2nc(C3CC3)cc(C(=O)Nc3ccccc3F)c12", "survival": "inactive: 102%"},
      {"smiles": "O=C(NCc1ccco1)c1ccc2c(c1)N(Cc1cccc(Cl)c1)C(=O)c1ccccc1S2(=O)=O", "survival": "active: 46%"}
    ]}
  ]
}
